# Source: the RNAGym collection of RNA variant scans (doi:10.1073/pnas.2313332121)
# Variants at the background level are over-represented here.
# B1: TPR 5TU (parent)
# chain: GGAUCUUCUCGAUCUAACAAAAAAGACAAAUCUGCCACAAAGCUUGAGAGCAUCUUCGGAUGCAGAGGCGGCAGCCUUCGGUGGCGCGAUAGCGCCAACGUUCUCAACUAUGACACGCAAAACGCGUGCUCCGUUGAAUGGAGUUUAUCAUG
# Variants of: B1
# Experiment: polymerase ribozyme fitness, log enrichment relative to wild type (log ratio); higher = more active; in vitro selection for triplet polymerase activity
# In short: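 Fitness is a logarithmic measure of how a genotype enriched relative to the wild type, with replicate averages weighted by inverse variance. The logarithm uses base 2, and enrichment came from Illumina sequencing of input and output libraries. Those libraries were PCR-built, transcribed mutants of each subunit of a heterodimeric triplet polymerase ribozyme, passed through one triplicate in vitro selection round that included frozen incubation at −7 °C, gel excision of extended constructs and streptavidin-bead capture. Genotypes were kept only if they had ≥10 input reads and ≥1 read per output.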
row,Variant,polymerase ribozyme fitness (log ratio)
1,A30U C54U C57A A64G G84A A107G C118G G143A,≤ -4.2
2,A30U C54U C76G C99G C103A U134A,≤ -4.2
3,A30U C57G C79G C85G U101G C108G A138C,≤ -4.2
4,A30U C72A C87U C95A U102A C114U G140U,≤ -4.2
5,A30U C75G C87G G124A,≤ -4.2
6,A30U C76A C96G U135G,≤ -4.2
7,A30U C79U G83C,≤ -4.2
8,A30U C87U G92A C99G U102C G141C,≤ -4.2
9,A30U C95G,-3.94
10,A30U C123G U135C,≤ -4.2
11,A30U G42A C85U A89G C99A A107C A122U C125A U144C C149A,≤ -4.2
12,A30U G42C A52C G70C C76U C85G G117A U144G,≤ -4.2
13,A30U G50C U56A A66C G141A,≤ -4.2
14,A30U G58C U90G C95A,≤ -4.2
15,A30U G59C G140A,≤ -4.2
16,A30U G59U A60U C75A C85G,≤ -4.2
17,A30U G68U G83U U109G U139A,≤ -4.2
18,A30U G70A G143C,≤ -4.2
19,A30U G74C U148A,≤ -4.2
20,A30U G94A,-3.7
21,A30U G94U G143C,≤ -4.2
22,A30U U31A G42C A47U C57A,≤ -4.2
23,A30U U31C U77C U82C C129G,≤ -4.2
24,A30U U33C C72U G84U C116U G141U,≤ -4.2

row,Variant,polymerase ribozyme fitness (log ratio)
1,A30U U33C G50U U61A C108U C123U A138U A142G U151A,≤ -4.2
2,A30U U44A C51A C85U U101A G117U G133U,≤ -4.2
3,A30U U44A C57G G59A C75A G83U G84C U109G,≤ -4.2
4,A30U U44A C85A A110C U111C,≤ -4.2
5,A30U U44C A121G U139A,≤ -4.2
6,A30U U56A G62A G126A,-3.5
7,A30U U56G G84A C96U A113C C125U U134A A142U,≤ -4.2
8,A30U U61A G70C C96A U111G G140A,≤ -4.2
9,A30U U61A U77A A98G C116U A120C,≤ -4.2
10,A30U U78A C96U U102G,≤ -4.2
11,A30U U104A A150U,≤ -4.2
12,A30U U144A,-3.67
13,U31A A41C U61A G128U A138U,≤ -4.2
14,U31A A47C U56A C87U,-0.397
15,U31A A49C U53A C76G G81A G92A A106G G117A,≤ -4.2
16,U31A A49G G50C G84U A98U C125A U130G,≤ -4.2
17,U31A A49G U55A G59U C96G,-1.89
18,U31A A49U A60G G83U U102G A115U,≤ -4.2
19,U31A A52C A91U,-4.06
20,U31A A60G G83U G86U A115U A137U,≤ -4.2
21,U31A A66C C85A A106U G128A,≤ -4.2
22,U31A A66U A91G,≤ -4.2
23,U31A A66U G86U G100C,≤ -4.2
24,U31A A73C,-4.13

row,Variant,polymerase ribozyme fitness (log ratio)
1,U31A A73G C85G G143U,≤ -4.2
2,U31A A73U C95G,-3.66
3,U31A C32A C87A C93A G124C G143A,≤ -4.2
4,U31A C32G A60G G81A U90G,≤ -4.2
5,U31A C38A G50C C85U,≤ -4.2
6,U31A C51U A73G C95G,-3.09
7,U31A C54G C57A C85G C123U,-3.47
8,U31A C54U G58A A73G C93G C95A,≤ -4.2
9,U31A C57U G70A C87G A98G A113C C116G,≤ -4.2
10,U31A C69A C95A C116G,-2
11,U31A C76G C95U,≤ -4.2
12,U31A G42C U55G C118G A120C,≤ -4.2
13,U31A G42U G48A C54U C69A A142U U145A,≤ -4.2
14,U31A G48C C51U C63U U78G U90A C95A C105G A115U C118G A150C,≤ -4.2
15,U31A G50A C51G G59A G68C G86C G94U G124U,≤ -4.2
16,U31A G59A G84A U102G G128C A142C,≤ -4.2
17,U31A G80U G112C,≤ -4.2
18,U31A G81U G83A C85G A91G C103U U104A U109G C118U C123U G124A G143A,≤ -4.2
19,U31A G83C C105U U127G G133A A137C,≤ -4.2
20,U31A G86U,-0.886
21,U31A G88A U90A G133A,≤ -4.2
22,U31A G92C C131U U135C U151C,≤ -4.2
23,U31A G94A,-0.349
24,U31A U33A A49C C123U U139C,≤ -4.2

row,Variant,polymerase ribozyme fitness (log ratio)
1,U31A U33G A47G U53A G83U G126A A150U,≤ -4.2
2,U31A U44A G59A C63A C75G C87A C132A,≤ -4.2
3,U31A U44G A52C C57U G80C U90A C96A U111G,≤ -4.2
4,U31A U55G C93G A110C A115U C123G,≤ -4.2
5,U31A U135G G143C,-3.93
6,U31C A37C A106U A107C,≤ -4.2
7,U31C A37G C99A A115U A120G G133U,≤ -4.2
8,U31C A39C C54U A73G U90G G124A,≤ -4.2
9,U31C A39C C57A C76G C95G C131U U144G,≤ -4.2
10,U31C A40C G74A C95U,≤ -4.2
11,U31C A41U A115G U144G,-1.6
12,U31C A47G A49U G94A A119G G136C,-4.04
13,U31C A47G A52C C69A C85G U101G,≤ -4.2
14,U31C A49C C79U C96A U111G G143U A150C,≤ -4.2
15,U31C A52C C57U G59C C99U U145G,-3.63
16,U31C A52G G86U G88A G152U,≤ -4.2
17,U31C A60C G92A C99A,≤ -4.2
18,U31C A60C U61A A66G C87U U90G C105A,≤ -4.2
19,U31C A60U A110G C118G U144C,-3.59
20,U31C A91C A97G U104G,≤ -4.2
21,U31C C32A C87A,≤ -4.2
22,U31C C32U G92A U148A,≤ -4.2
23,U31C C43U G92C,≤ -4.2
24,U31C C54A C69A G94A A115U U148A U151G,≤ -4.2

row,Variant,polymerase ribozyme fitness (log ratio)
1,U31C C57G C87U U102A G136A,-0.199
2,U31C C57U G83U C85G U90A G94U U104C U148C,≤ -4.2
3,U31C C63G G83A C96U,1.61
4,U31C C69U G86U C96U,-3.55
5,U31C C85A C96G C103A,≤ -4.2
6,U31C G34C G94U G126U U145A,≤ -4.2
7,U31C G34U A52U U56A A60G G84A G92A C95G C105A A110C G133C U148A,≤ -4.2
8,U31C G42U U44C,≤ -4.2
9,U31C G46C G92A,-3.48
10,U31C G50C C69G C132G G143U U146C,≤ -4.2
11,U31C G50C U61A C76A,≤ -4.2
12,U31C G81U C93G A113U G126A,≤ -4.2
13,U31C G84A,0.831
14,U31C G86C C93U A98U,-1.96
15,U31C U33G A39G C114U G126A,≤ -4.2
16,U31C U44A C54A C76G C95G C105G A107G,-4.01
17,U31C U45G C57U C76A U109G,≤ -4.2
18,U31C U56A G68A G92A A98C G140U G141U,≤ -4.2
19,U31C U56A G88A C95A C149U,≤ -4.2
20,U31C U77C C93G A110G A115U,≤ -4.2
21,U31C U82G C95A U151G,≤ -4.2
22,U31G A37G U61A C85G G141U A150U,≤ -4.2
23,U31G A39C C85U U90C C105A,≤ -4.2
24,U31G A39G G58C A91G,≤ -4.2

row,Variant,polymerase ribozyme fitness (log ratio)
1,U31G A40C G42A G50A C54U C72U G94U,≤ -4.2
2,U31G A40G G42A C95A A119U G136A A138U,≤ -4.2
3,U31G A40G G83C A142G,≤ -4.2
4,U31G A41U G48U G67A A97C C103G,≤ -4.2
5,U31G A52C U111G C114U A147G,≤ -4.2
6,U31G A52G C114U C125U U144C U148A,≤ -4.2
7,U31G A60C G62C C69G C96U,≤ -4.2
8,U31G A91G C108U C118A U144G A150C,≤ -4.2
9,U31G C36G A52U G58U C85U A97G A150G,≤ -4.2
10,U31G C36U A66G C69G A98G A107G,≤ -4.2
11,U31G C38U A89U C93G,≤ -4.2
12,U31G C38U G46A G59U C96G C118U U145C,≤ -4.2
13,U31G C43U U55A A89U C95U C99A U104C,≤ -4.2
14,U31G C51G G94C U134G A137G,≤ -4.2
15,U31G C54A A91C G143C,≤ -4.2
16,U31G C54A C95A A142U,-3.34
17,U31G C54U U101C,-0.138
18,U31G C57A A73C C87G C96G C116G A142U,≤ -4.2
19,U31G C75A U77G G86A C114A C125U,≤ -4.2
20,U31G C76U G92U C103A,≤ -4.2
21,U31G C95A,0.165
22,U31G C123U,0.732
23,U31G G46A C93G U151A,≤ -4.2
24,U31G G46C C85U G124U,≤ -4.2

row,Variant,polymerase ribozyme fitness (log ratio)
1,U31G G46U C57U C96A A137G,≤ -4.2
2,U31G G50A,-1.51
3,U31G G58U C85U A91G U127G,≤ -4.2
4,U31G G59A G92U,-0.919
5,U31G G65A,-1.83
6,U31G G74A G86A G126U,≤ -4.2
7,U31G U33G G86A U101C C125U G141U,≤ -4.2
8,U31G U55A A91G C95G U102G G133A U144A A147U,≤ -4.2
9,U31G U90G C108G A119C,≤ -4.2
10,U31G U145A,0.652
11,U31G U148C,-2.37
12,C32A A37U U56G G80C G81A C105G A122C C123A,≤ -4.2
13,C32A A40C G84A,≤ -4.2
14,C32A A49U G68U C79G C85U U127G,≤ -4.2
15,C32A A52C G70C A89G A142C,≤ -4.2
16,C32A A91G C99U A119C G141C,≤ -4.2
17,C32A A91U C99U A120C,≤ -4.2
18,C32A C35U C69A C75U A150G,≤ -4.2
19,C32A C38A U56A C69U C93A A122C G126U,≤ -4.2
20,C32A C38G C79G C85U,≤ -4.2
21,C32A C38U G128C U135A,≤ -4.2
22,C32A C43U G50A C72U C76G,≤ -4.2
23,C32A C69A C72G G81A A91C G141A,≤ -4.2
